About 4,300 (8.3%) of roughly 52,000 compounds were called active. Cut-off read from the data, not from the text of the source: active = survival mostly below about 52% (no sharp cut-off); inactive = mostly above about 56%. This is one part of the list.

The subject of this assay is DeltatarO mutant. Briefly: S. aureus survival, RN4220 and DeltatarO strains – OD600, teichoic acid synthesis inhibitors, primary screen (AID 463173). Conditions: S. aureus RN4220 wild type/DeltatarO growth, OD600, 18 h, stronger effect = lower value, screened at 18.75 µg/mL (by protocol).
With `COc1ccc(OCC(=O)NC(Cc2c[nH]c3ccccc23)C(=O)O)cc1` (stereo not drawn), the survival was inactive: 60%.

Consider `CCc1nnc(SC(CC)C(=O)Nc2cc(C)ccc2C)c2cc3occc3n12` (stereo not drawn), for which the survival was inactive: 79%.

`CC1CCN(CCCNC(=O)CN2C(=O)CSc3ccc(S(=O)(=O)N4CCOCC4)cc32)CC1`: the survival is inactive: 89%.

Turning to `Cc1ccc(C)c(NS(=O)(=O)c2ccc3oc(=O)c4ncn(C)c4c3c2)c1`, the survival is inactive: 82%.

With `NC(N)=NC(=O)c1ccc(N)cc1`, the survival is inactive: 86%.

Regarding `CCn1c(=O)c2cc(C(=O)NCCc3ccc(Cl)cc3)sc2c2ccccc21`, the survival is inactive: 76%.

Regarding `CCn1c(=O)c2sccc2n2c(CCC(=O)Nc3ccc(C(C)C)cc3)nnc12`, the survival was inactive: 93%.

Take `Cc1ccc(N(C)C(=O)C2CCN(S(=O)(=O)c3cn(C)cn3)CC2)cc1`: the survival was active: 37%.

Turning to `CCSc1nc(NC(C)=O)nn1C(C)=O`, the survival was inactive: 87%.

With `Cc1ccc(NC(=O)c2c(C)oc3ncn(CC(C)C)c(=O)c23)nc1`, the survival was inactive: 120%.

Regarding `Cc1ccc2nc3c(cc(C(=O)NCc4ccco4)c(=N)n3C(C)C)c(=O)n2c1`, the survival was inactive: 84%.

Turning to `CN1/C(=C2/SC(=O)N(Cc3ccccc3)C2=O)Sc2ccccc21`, the survival was inactive: 74%.

On to `O=C(Nc1ccc(N2CCOCC2)c(C(=O)O)c1)c1ccc(Br)cc1`, for which the survival is active: 8%.

Consider `Cc1ccc(CNC(=O)Cn2ccn(-c3ccc(F)cc3)c(=O)c2=O)cc1`, for which the survival was inactive: 56%.

`CC(NC(=O)CSc1nc(-c2ccccc2F)nc2cc(=O)[nH]n12)c1nc2ccccc2n1C` (stereo not drawn): the survival is inactive: 88%.

For `Cc1cccc(CN2C(=O)c3ccccc3S(=O)(=O)c3ccc(C(=O)NC4CCCCC4)cc32)c1`, the survival is inactive: 79%.

With `COc1cccc2c(=O)cc(C)[nH]c12`, the survival was inactive: 88%.

As for `COc1ccc(NC(=O)c2cc3c(=O)n(Cc4cccnc4)ccc3nc2C)c(OC)c1`, the survival was inactive: 83%.

With `COc1ccc(OC)c(S(=O)(=O)N2CCN(Cc3nc4ccc(C)cc4o3)CC2)c1`, the survival is inactive: 76%.

In the case of `CCN(C(=O)Cn1c(=O)n(Cc2ccc3c(c2)OCO3)c(=O)c2ccc(C(=O)NC3CCCCC3)cc21)c1cccc(C)c1`, the survival was inactive: 84%.

With `Cc1cc(C)cc(NC(=O)N2CCN(C(=O)c3nsc4ccccc34)CC2)c1`, the survival is inactive: 88%.

Regarding `CCOC(=O)c1cc(S(=O)(=O)NCc2ccc(OC)cc2)[nH]n1`, the survival is inactive: 88%.

As for `CCCC(=O)Nc1ccccc1C(=O)OCc1cc(=O)n2nc(C(C)C)sc2n1`, the survival is inactive: 99%.

Turning to `Cc1cccc2c(=O)cc(CSc3ccccc3NC(=O)C(C)(C)C)[nH]c12`, the survival was inactive: 102%.

Consider `CCC(=O)N1CCCc2cc(S(=O)(=O)N3CCC(C(=O)Nc4ccc(C#N)cc4)CC3)ccc21`, for which the survival was inactive: 125%.

As for `CC(=O)c1cccc(NC(=O)Cn2cc(C(=O)c3cccc(Cl)c3)c(=O)c3ccc(C)nc32)c1`, the survival was inactive: 56%.

For the compound `Cc1ccc(OCCSc2nc3ccc(NC(=O)c4ccco4)cc3s2)cc1`, the survival is inactive: 84%.

For the compound `CCOc1ccc2nc(N(Cc3cccnc3)C(C)=O)sc2c1`, the survival is inactive: 75%.

For `COc1ccc(-c2cc3ccc(O)c(CN4CCCCC4C)c3oc2=O)cc1OC` (stereo not drawn), the survival is inactive: 67%.

In the case of `CC(=O)N1CCc2cc(S(=O)(=O)NC(Cc3ccccc3)C(=O)NCc3ccccc3Cl)ccc21` (stereo not drawn), the survival is inactive: 66%.

For the compound `CCCc1ccc(OC(C)c2nc(-c3ccc(-n4cccc4)cc3)no2)cc1` (stereo not drawn), the survival is active: 52%.

Consider `O=C(CCNS(=O)(=O)c1ccc2c(c1)CCN2C(=O)C1CC1)N1CCN(c2cccc(C(F)(F)F)c2)CC1`, for which the survival is inactive: 83%.

For `Cc1ccc(CNC(=O)CCc2nc3cccnc3n2Cc2ccccc2)cc1`, the survival was inactive: 74%.

For the compound `COc1cc(NC(=O)Cn2nnnc2-c2ccccc2F)cc(OC)c1OC`, the survival was inactive: 90%.

Consider `Cc1ccc(Cn2cc(S(=O)(=O)c3ccc(Cl)cc3)c(=O)c3cc4c(cc32)OCO4)cc1`, for which the survival was inactive: 77%.

Consider `Cc1ccc(CNC(=O)Cn2c(=O)n(Cc3ccccc3)c(=O)c3c2c2cc(C)ccc2n3C)cc1`, for which the survival was inactive: 94%.

For the compound `COc1ccc(CN2CCc3nc(Nc4ccccc4)ncc3C2)c(OC)c1OC`, the survival was inactive: 87%.

In the case of `CCOc1ccc(N2CC(C)Cn3c2nc2c3c(=O)n(CC(=O)O)c(=O)n2C)cc1` (stereo not drawn), the survival was inactive: 80%.

Take `COc1cc(N2C(=O)CSC23C(=O)N(C)c2ccccc23)cc(OC)c1OC` (stereo not drawn): the survival is inactive: 66%.

With `COCCN1Cc2cccc(C(=O)Nc3ccc(C)c(F)c3)c2C1=O`, the survival was inactive: 66%.

Regarding `Cc1cc(C)cc(NC(=O)C(=O)NCC(c2ccc3c(c2)OCO3)N2CCOCC2)c1` (stereo not drawn), the survival was inactive: 107%.

On to `Cc1ccc(CNC(=O)c2cccc(N3CCCS3(=O)=O)c2)cc1`, for which the survival is inactive: 94%.

On to `COC(=O)c1cccc(NC(=O)N(C)CCc2c(C)nn(C)c2C)c1`, for which the survival is inactive: 80%.

Consider `CCCCn1cc(S(=O)(=O)c2ccc(OCC)cc2)c(=O)c2cc(OC)c(OC)cc21`, for which the survival is inactive: 73%.

For `CCc1ccc(-n2nc3ccc(NC(=O)c4cc(Cl)c(OC)c(Cl)c4)cc3n2)cc1`, the survival was inactive: 83%.

As for `Cc1ccc(NC(=O)CN(CCc2ccccc2)S(=O)(=O)c2ccccc2)c(C)c1`, the survival is active: 38%.

Take `CCOc1ccc(C2C(=O)N(C3CCCCCC3)CC(=O)N2CCC2=CCCCC2)cc1OC` (stereo not drawn): the survival is inactive: 101%.

As for `CCCC(=O)Nc1ccc2nc(SCC(=O)N3CCCC3)sc2c1`, the survival was inactive: 74%.

In the case of `Cc1ccccc1NC(=O)N1CCc2cc(S(=O)(=O)N3CCC(C)CC3)ccc21`, the survival is inactive: 95%.

For `Cc1ccccc1CNC(=O)c1cccc(NC(=O)c2nsc3ccccc23)c1`, the survival was inactive: 83%.

As to `COc1ccc(-c2nc(C)c(CCNC(=O)c3ccc(F)c(F)c3)s2)cc1`, the survival was inactive: 84%.

Take `COc1ccccc1C1=NS(=O)(=O)N(C)C(C(=O)Nc2cc(OC)c(OC)c(OC)c2)=C1`: the survival was inactive: 78%.

As for `Cc1nc2nc(SCC(=O)Nc3cccc(Cl)c3)nn2c(C)c1Cc1ccccc1`, the survival is inactive: 85%.

`CC(C)OC(=O)CSc1nc2cccnc2n1C1CCCCC1`: the survival was inactive: 86%.

As to `Cc1ccc2c(c1)c1c(c(=O)n(-c3cccc(Cl)c3)c(=O)n1CC(=O)c1ccc(Cl)cc1)n2C`, the survival is inactive: 133%.

`Fc1ccc(-c2cc(-c3nc(-c4ccccc4)no3)[nH]n2)cc1`: the survival is inactive: 72%.

As for `COc1ccc(Nc2nc3c(S(=O)(=O)c4ccccc4)nnn3c3ccc(Cl)cc23)c(OC)c1`, the survival is inactive: 124%.

`CC(C)c1ccc(NC(=O)c2cn(C3CCCCC3)c(=O)c3c2c2ccccc2n3C)cc1`: the survival is inactive: 83%.

`CN1CCN(C(c2ccc(Cl)cc2Cl)c2sc3nc(-c4ccco4)nn3c2O)CC1` (stereo not drawn): the survival was inactive: 76%.

For `Cn1nc(C(=O)NCc2cccc(Cl)c2)c2c1-c1ccccc1SC2`, the survival was inactive: 74%.

Regarding `CC1(C2CCC3C4CCC5CC6(C/C(=N\O)C5(C)C4C(O)CC32C)OCCO6)OCCO1` (stereo not drawn), the survival is inactive: 56%.

For the compound `COCCNc1ncnc2c1cnn2-c1cc(Cl)ccc1C`, the survival was inactive: 83%.

For `Cc1ccc(OCC(=O)Nc2ccc(OCc3cc(=O)n4ccsc4n3)cc2)cc1`, the survival is inactive: 80%.

On to `CCC(=O)N1c2ccccc2CC1C(=O)NCCc1ccccc1Cl` (stereo not drawn), for which the survival was inactive: 116%.

Take `Cc1ccc(S(=O)(=O)C2(C(=O)Nc3ccc(C)c(Cl)c3)CC2)cc1`: the survival is inactive: 21%.

In the case of `COc1ccc(N2C(=O)CSC23C(=O)N(Cc2ccccc2F)c2ccccc23)cc1Cl` (stereo not drawn), the survival was inactive: 78%.

With `COc1ccc(-c2cn3cccnc3n2)cc1NC(=O)COc1ccccc1`, the survival was inactive: 83%.

As to `O=C(CSc1ccccc1)Nc1c[nH]c(=O)[nH]c1=O`, the survival was inactive: 78%.

Consider `CC(=O)N(Cc1cc2cc(C)ccc2[nH]c1=O)C1CCCC1`, for which the survival was inactive: 68%.

Regarding `Cc1c(CC(=O)N2CCCCC2)c(=O)oc2cc3occ(C(C)(C)C)c3cc12`, the survival was inactive: 71%.

For the compound `CCC1=Nc2cc(C(=O)NCc3ccccc3OC)ccc2Sc2ccc(Cl)cc21`, the survival is inactive: 88%.

For the compound `Cc1c(C(=O)NCc2ccccc2Cl)sc2nc(-c3ccc(F)cc3)cn12`, the survival was inactive: 68%.

`O=C(NCc1ccc(F)cc1)c1cc(Sc2ccc(F)cc2F)nc2ccccc12`: the survival is inactive: 98%.

As to `COc1ccc(CNC(=O)c2ccc(-c3nc(CSc4ccc(C)cc4)c(C)o3)cc2)cc1OC`, the survival is active: -1%.

`Cc1nn(C(=O)c2ccccc2)c(C)c1S(=O)(=O)N1CCOCC1`: the survival is inactive: 62%.

For `CCC(=O)N1CCc2cc(S(=O)(=O)NC(C(=O)NCc3ccccc3Cl)C(C)C)ccc21` (stereo not drawn), the survival is inactive: 83%.

As for `CCOC(=O)C1CCN(C(=O)Cn2c(-c3cccs3)cc3cc(Cl)ccc32)CC1`, the survival was inactive: 94%.

For `CCOC(=O)CN(Cc1ccccc1)C(C(=O)NC1CCCCC1)c1ccc(C)cc1` (stereo not drawn), the survival is active: -3%.

Regarding `CCOc1ccccc1CNS(=O)(=O)c1ccc2c(c1)C(C)(C)C(=O)N2C`, the survival was inactive: 91%.

Regarding `CC1=C(c2ccc(C)cc2)S(=O)(=O)NC1=NCCCN1CCN(c2cc(C)ccc2C)CC1`, the survival was inactive: 103%.

Consider `Cc1ccc(CNC(=O)CCS(=O)(=O)c2cc3c(cc2Cl)NC(=O)CO3)cc1`, for which the survival is inactive: 92%.

Turning to `COc1ccc(N2CCN(CC(O)COc3ccc(C)cc3C)CC2)cc1` (stereo not drawn), the survival was inactive: 98%.

Regarding `CC(C)(C)C(=O)NC1(C(F)(F)F)NC(=O)N(c2ccc(F)cc2)C1=O` (stereo not drawn), the survival was inactive: 77%.

`Cc1ccc(Cl)cc1N1CCN(C(=O)CN2C(=O)COc3ccc(S(=O)(=O)N4CCC(C)CC4)cc32)CC1`: the survival was inactive: 52%.

With `O=C(NCc1ccc(Cl)cc1)c1ccc(NC(=O)N2CC3CCCN3c3ccccc32)cc1` (stereo not drawn), the survival is inactive: 87%.

With `O=C(Nc1c(Cl)cccc1Cl)c1cccc2c1C(=O)N(C1CCCCC1)C2`, the survival was inactive: 78%.

As to `COc1ccc(-n2nc(C(=O)NCCCOC(C)C)c3c4ccccc4n(C)c3c2=O)cc1`, the survival is inactive: 103%.

Consider `Cc1ccc2c(c1)C(O)(C(=O)NC(N)=O)C(=O)N2` (stereo not drawn), for which the survival is inactive: 74%.

The record behind these values is PubChem BioAssay AID463173 (ICCB-Longwood Screening Facility, Harvard Medical School, 2010).
